# Assay results: the supplement of paper PMC3334620
# Over roughly 33,000 sequences, “E-score (-0.5 to 0.5)” has its median near -0.01; the highest 2% begin near 0.26. Some of the results follow.
# Target: Ste12 (UniProt P13574)
# Experiment: PBM E-score (8-mer binding enrichment) (E-score (-0.5 to 0.5)); higher = stronger / more preferred TF binding; most listed sequences are background and not binding sites
# Details: protein concentration: 200 nM; construct: GST-DNA-binding domain
# Method in brief: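 Universal all-10-mer Agilent arrays, double-stranded by primer extension on fresh or once-stripped slides, were probed with about 100-200 nM GST-tagged yeast transcription factors made by PURExpress. Fluorescent anti-GST detected bound protein, and masliner normalised the scans. E-scores from the Universal PBM Analysis Suite were given to each ungapped eight-base word pooled with its reverse complement.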
row,Sequence,PBM E-score
1,ACCGGTAG,-0.093
2,ACGGATAC,0.0745
3,CTTTGACA,-0.0728
4,CACCAGCC,-0.164
5,CTTCGCAA,0.0529
6,GGGCCATA,-0.0166
7,TATAGCGA,-0.00451
8,CACAAGTC,-0.138
9,GGCCTGGA,-0.15
10,ATGATAAT,0.13
11,ATGCTCGA,-0.0368
12,CCGTCCCA,0.0602
13,AGATAACC,-0.0669
14,ACTACCAA,-0.114
15,ACCGCGGA,0.0698
16,GCCCAGCA,-0.09
17,AGTGAGAG,-0.175
18,CAGAGACG,0.0192
19,GAAAGAAC,-0.00643
20,ACGGGGAC,0.0352
21,CGTTGACA,-0.263
22,AGCTTTAC,-0.1
23,AGGAAGAA,-0.0282
24,CTTGGCCA,-0.176
25,ACGTTTGA,0.178

row,Sequence,PBM E-score
1,CTTGGCAC,-0.0141
2,GCCAGAAC,0.0381
3,CGGGTAGC,-0.113
4,ATATAGCC,0.235
5,AGCTCGAC,-0.00751
6,CCCAGGCC,-0.109
7,ATTACCTA,-0.00035
8,AGTTATAG,0.0603
9,ATCTTCCA,-0.0869
10,GCGACTAA,-0.0174
11,CGGTTGTC,0.00291
12,ATATCTAC,0.0901
13,GCCTGTAA,-0.0964
14,ACGTGGTG,-0.109
15,TGTTTGAA,0.378
16,AGAATTCG,0.051
17,GGGGGTCA,-0.311
18,CGGGTGCC,-0.12
19,AGTTTTAC,0.143
20,CTTGACCA,-0.0197
21,CGCGTTGC,-0.0856
22,ATGGCACC,-0.0968
23,AAGTAGCG,-0.209
24,CGGTCAAG,-0.174
25,ACGCATCA,0.0363

row,Sequence,PBM E-score
1,CAGTTGAA,0.0474
2,ACTGTAAC,0.219
3,GGCCCCGA,-0.173
4,GAACCAGA,-0.128
5,AGATAGAG,0.03
6,CAAGTTCC,-0.13
7,AAAAGGGA,0.0721
8,AAACACTA,0.273
9,GTATACCA,0.0156
10,GTTCCGTA,-0.0307
11,ACTAGAAG,-0.143
12,AGGATGCG,-0.101
13,AAAAAGAT,0.271
14,AGGAAGTA,0.0853
15,CTCCCCGC,0.386
16,AACATGCG,0.211
17,CCTAACGA,0.0541
18,CGGCTAAA,0.17
19,GACGCGTC,-0.165
20,ACCGGAGA,-0.00556
21,GCCCTCAA,-0.23
22,CTGTCGTA,-0.0251
23,CGATATAC,-0.00426
24,GGTCCCTA,-0.0245
25,AACCCGAG,-0.0631

row,Sequence,PBM E-score
1,CTCGCCGC,-0.11
2,CGTAGAGA,-0.103
3,GGAAGCCC,-0.205
4,CTCTAGCC,-0.203
5,ATCCAGGC,-0.127
6,CGCGTTGA,-0.103
7,CCGAAGAC,0.0421
8,GTCTAAGA,-0.0187
9,GTAGGTTA,0.167
10,GCATCGGC,-0.0816
11,GGCGGAGA,-0.0569
12,CAATTCGC,0.0903
13,CTGGGTTC,-0.153
14,AGGAGACA,-0.0405
15,GTAAGAGA,0.0682
16,ACCTTTAT,-0.135
17,GCGTACCC,-0.129
18,CTTCTCAA,0.102
19,ACGTGCTA,-0.111
20,CACTGCGA,0.0261
21,ATCCACGC,-0.18
22,GTAATGAC,-0.0454
23,GTTTTACA,0.296
24,CTCTATTC,-0.136
25,GAACCTTA,0.16

row,Sequence,PBM E-score
1,AGGACCCG,-0.042
2,ATTTCGTG,0.0355
3,AGTAATGG,0.0346
4,ATGGTTGG,0.00556
5,GGGGAGGA,0.141
6,AAAACCGT,0.106
7,AGCTTCCT,-0.0998
8,AATCGGAA,0.155
9,CTTGTAAA,0.121
10,GCAGGGAA,0.153
11,CTTCTACA,0.0721
12,CGCCAACA,-0.0261
13,AAGTGCTC,-0.208
14,CTCAGTGA,-0.0146
15,GCTGTAGA,-0.0176
16,ACAATTCT,0.0706
17,ACCACCAA,0.00269
18,ATGTGAAA,0.202
19,GAGTATCA,-0.00514
20,TCGCATCA,0.149
21,CAGTAGTA,-0.0437
22,ATGATCAG,0.0759
23,GGGATCTA,-0.115
24,GGGTTCAC,-0.0147
25,ATGCTGTA,0.0544

row,Sequence,PBM E-score
1,GAGTATCC,-0.127
2,CATAGACC,0.0275
3,ATTTGTAA,0.288
4,CAGCCCTA,0.119
5,AATATATA,0.22
6,CTAACAGC,0.0148
7,TCGTCCCA,0.0202
8,ATAGCCGA,0.0627
9,AACGCAGT,-0.196
10,GGCTCCAC,-0.124
11,GCGAGGAA,0.00814
12,GCTCGAAC,-0.0502
13,AGTCAAGG,-0.139
14,ACACTTAC,0.13
15,TATGTTGA,0.153
16,CCAGGACA,-0.0867
17,GACGTCCA,0.0078
18,GATGGTCC,-0.173
19,ACGCAATA,0.116
20,AACGCCCG,0.0188
21,CATGAAGC,0.00731
22,ACGTTCTG,0.108
23,ACATTGCA,0.164
24,CCCCGAGG,-0.0728
25,CGGTTAGA,-0.0703

row,Sequence,PBM E-score
1,GGGCCGAA,-0.0272
2,AAACTTGT,0.248
3,CGATCTCA,0.0448
4,ATCCGCAT,-0.0405
5,CTAGAACC,-0.0989
6,AAGCAACA,-0.0738
7,CAGGGTGC,-0.133
8,CCGTCCGC,-0.102
9,GATGAGAA,-0.1
10,ATAAAGCG,0.162
11,AGTTCGCG,-0.00649
12,CGTACGTC,-0.182
13,GTACCATA,0.0067
14,AGAGGTTG,-0.036
15,AAATAGAC,-0.0352
16,GTCCAAAC,0.0248
17,ACTCACAC,-0.0757
18,AACAGAGG,0.0174
19,CGCCGAGA,-0.0805
20,CCCGCCAC,0.213
21,AAAGGGCG,0.069
22,TACGCCAA,0.0395
